# ± gives the standard deviation. Over roughly 6,600 sequences, “pre-steady-state target cleavage rate” has its median near 0.07; the highest 2% begin near 0.72. Only a part is listed here, and it is no random draw.
# Tested on: MIWI (PIWIL1) piRISC loaded with Kctd7 piRNA (30 nt)
# Experiment: pre-steady-state target cleavage rate (min^-1); MIWI and MILI are mouse PIWI proteins and EfPiwi is from a freshwater sponge; tags in brackets are library labels; higher = faster piRNA-guided slicing of the target
# Settings: guide: Kctd7 piRNA 5'p-UGUUAAUCUCUCAGAGAAGGUGACAGUGAU; auxiliary factor: 500 nM mouse GTSF1
# Procedure, shortened: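 A transcribed, DNA-blocked target RNA library […] was incubated at 33 °C for 0–8 or 0–960 min with 1 nM active affinity-purified piRISC carrying one synthetic guide, in HEPES–potassium acetate buffer with or without 500 nM GTSF1 partner protein. Uncleaved targets were then sequenced and normalised to depth and to weakly complementary targets. Data from three trials were pooled, with k3 capped at 0.0001 min^-1, and a burst-and-steady-state fit yielded the pre-steady-state cleavage rate.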
# 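Further: 1 nM active piRISC with 0.1 nM target library at 33 °C single turnover.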
row,Sequence,pre-steady-state target cleavage rate
1,AUCACUGUCACCUUCUCAGAGAGAUAAACA,0.106 ± 0.011
2,UAGUGACAGUGGAAGACUGAGAGUUUAUCA,< 0.0001
3,UACACUGACACCUUCUGUGAGAGAUUAACA,0.338 ± 0.028
4,UUCACUGUCACCUUCUCUGGGAGAUUAACA,0.492 ± 0.021
5,UAGUGAGUCACCUUCUCUGAGACUAUAACA,0.00394 ± 0.0036
6,UUCACUGUCACCUUCUCUGAGAGAGUUAACA,0.421 ± 0.055
7,UAGUCUGUCACGUACUCUGAGAGAUUAACA,0.227 ± 0.027
8,UACACUGUCUGCUUCUCUGAGAGAUUAACA,0.708 ± 0.043
9,UAGUGACAGACGUUCUCUGAGAGAUUAUCA,0.00619 ± 0.0026
10,UAGUGAGUCACCUUCUUUGAGAGAUUAACA,0.534 ± 0.04
11,UAGUCAGUCACCUACUCUGAGAGAUUAACA,0.698 ± 0.035
12,UAGUCUGUCACCUUCUCUCUGAGAUUAACA,0.0156 ± 0.0033
13,UAGACUGUCACCUUCUCUGAGAGAUUGACA,0.506 ± 0.047
14,UAGUGUGUCACCUUCUCUGAGAGUUUUUGA,0.12 ± 0.033
15,UAGUGAGUCACCUUCUCUGAGAGUUAACA,0.194 ± 0.053
16,UAGUGACAGACCAUCUCUGAGAGAUUUACA,0.0073 ± 0.0026
17,AACACUGUCACCUUCUCUGAGAGUUUAACA,0.518 ± 0.077
18,UAGUGAGUCAACUUCUCUGAGAGAUUAACA,0.697 ± 0.041
19,UAGUGACUCAGCUUCUCUGAGACAUUAACA,0.0131 ± 0.0029
20,UAGUCUGUGACCUUCACUGAGAGAUUAACA,0.343 ± 0.021
21,UAGUGACAGACCUUCUCUGAGAGCAUUAACA,0.0617 ± 0.0085
22,UACACUGCACCUUCUCUGAGAGAUUAACA,0.569 ± 0.027
23,UAGUGUGUCACACUUCUCUGAGAGAUUAACA,0.334 ± 0.036
24,UAGUCUGUCACCUUCUCAGAGAGAUUAUGA,0.0185 ± 0.0083

row,Sequence,pre-steady-state target cleavage rate
1,UAGUCUGUCACCUUGUGUGAGAGAUUAACA,0.0528 ± 0.0048
2,UAGUGACAGUGGAAGACUCAGUGAUUAACA,< 0.0001
3,UAGUGAGUCACCAACUCUGAGAGAUUAACA,0.229 ± 0.029
4,UACACUGUCACCUUCUCUGAGAGAAUUAACA,0.442 ± 0.081
5,UAGUGUGUCAGCUACUCUGAGAGAUUAACA,0.389 ± 0.026
6,AUCACUGUCAGGUUCUCUGAGAGAUUAAGA,0.0697 ± 0.013
7,UAGUGUGUCACCUUGUCUGAGAGAUUAACA,0.256 ± 0.034
8,UAGUCUGUCACCUUCUCUGUGUGAUUAACA,0.014 ± 0.0051
9,AUCACUGUCACCUUCUCUGAGAAGAUUAACA,0.096 ± 0.022
10,UAGUGUGUCUCCUUCUCUGAGAGUUUAACA,0.142 ± 0.018
11,UAGUGUGUCACGUUCUCUGAGAGAUUUUGA,0.00531 ± 0.0038
12,UAGACUGUCACCUUCUCUGACUGAUUAUGA,< 0.0001
13,UAGUGAGUCACCUUCUCUGAGAGUUUAUGA,0.309 ± 0.069
14,UAGUCUGUCACCUUCUCUGAGAGUUAUUGA,0.123 ± 0.039
15,UAGACAGUCACCUUCUGUGAGAGAUUAACA,0.514 ± 0.027
16,AUCACUGUCACCUUCUCUUAGAGAUUAACA,0.415 ± 0.021
17,UAGUGAGUCACCAUCUCUGACAGAUUAACA,0.192 ± 0.023
18,UAGUGACACACCUUCUCUGACACAUUAACA,0.00429 ± 0.0031
19,UACACUGUGACCUUCUCUGAGAGAUUAAGA,0.128 ± 0.022
20,AACAGUGUCACCUUCUCUGAGAGAUUAACA,0.705 ± 0.033
21,UAGUGUGUCACCUUCUCUGAGAGAUUAAAA,0.177 ± 0.028
22,AUCACUGUCACCUUCUCUGGGAGAUUAACA,0.532 ± 0.022
23,UAGUCUGACACCUUCUCUGACAGAUUAACA,0.131 ± 0.019
24,UAGUCACUCACCUUCUCUGAGAGAUUAAGA,0.0529 ± 0.011

row,Sequence,pre-steady-state target cleavage rate
1,AUCACUGUCACCUUCUCUGACAGAUUAAGA,0.01 ± 0.0043
2,UAGUCUGUGACCAUCUCUGAGAGAUUAACA,0.399 ± 0.024
3,UACACUGUCACCUUCUCAGACAGAUUAACA,0.0952 ± 0.013
4,UAGUCUGUCAGCUUCUCUCAGAGAUUAACA,0.0853 ± 0.0075
5,UAGACUGAGACCUUCUCUGAGAGAUUAACA,0.461 ± 0.023
6,UAGUGUGUCACCUUCUCUGUGAGAUUAAGA,0.064 ± 0.011
7,UAGUCUCUCACCUUCUCUCAGAGAUUAACA,0.0673 ± 0.0062
8,AUCACUGUCACUUCUCUGAGAGAUUAACA,0.628 ± 0.044
9,AUCACUGUCACCAUCUCUGAGAGAUAAACA,0.31 ± 0.03
10,UAGUGACACACCUUCUCUGAGAGAAUAUCA,0.0155 ± 0.0077
11,UAGUCUUCACCUUCUCUGAGAGAUUAACA,0.605 ± 0.027
12,UACACUGUCACCUUCUCUGAGAGAUAAACA,0.331 ± 0.036
13,UAGUCUGUCACCUUCUCUCAGACAUUAACA,0.0585 ± 0.0064
14,UUCACUGUCAGGUUCUCUGAGAGAUUAAGA,0.0711 ± 0.014
15,UUCACUGUCACCUUGUCUGAGAGAUAUUGA,0.351 ± 0.097
16,UAGUCUGUCACCUUCUCUGAGUGUUUAACA,0.0499 ± 0.008
17,AUCACUGUCACCAUGUCUGAGAGAUUAACA,0.253 ± 0.021
18,UAGUGACAGUGCUCCUCUGAGAGAUUAACA,0.00949 ± 0.0021
19,UAGACUGUCACCUACUCUCAGAGAUUAACA,0.0399 ± 0.0041
20,UAGACUGUCACCUUCUCUGAGAGAUGUAACA,0.419 ± 0.047
21,UAGUGACAGACCUUCUUUGAGAGAUUAACA,0.0159 ± 0.0058
22,UAGUGACUCACCUUGUCUGACAGAUUAACA,0.153 ± 0.017
23,UAGUCUGUCACCUUCUCCGAGAGAUUAACA,0.365 ± 0.057
24,UAGUGUGUCACCUUCAUCUGAGAGAUUAACA,0.0703 ± 0.015
